{
  "source": "paper PMC4336329",
  "about": "(PLoS ONE, 2015)",
  "note": "Hit rate of the full screen: of about 310,000 compounds, about 2,200 (0.71%) showed an effect of 50% or more. The effect is printed as a negative number. Some of the results follow.",
  "data": [
    {"target": "human ether-à-go-go-related gene (hERG) potassium channel (human, UniProt Q12809)", "sequence (Q12809 whole entry, looked up)": "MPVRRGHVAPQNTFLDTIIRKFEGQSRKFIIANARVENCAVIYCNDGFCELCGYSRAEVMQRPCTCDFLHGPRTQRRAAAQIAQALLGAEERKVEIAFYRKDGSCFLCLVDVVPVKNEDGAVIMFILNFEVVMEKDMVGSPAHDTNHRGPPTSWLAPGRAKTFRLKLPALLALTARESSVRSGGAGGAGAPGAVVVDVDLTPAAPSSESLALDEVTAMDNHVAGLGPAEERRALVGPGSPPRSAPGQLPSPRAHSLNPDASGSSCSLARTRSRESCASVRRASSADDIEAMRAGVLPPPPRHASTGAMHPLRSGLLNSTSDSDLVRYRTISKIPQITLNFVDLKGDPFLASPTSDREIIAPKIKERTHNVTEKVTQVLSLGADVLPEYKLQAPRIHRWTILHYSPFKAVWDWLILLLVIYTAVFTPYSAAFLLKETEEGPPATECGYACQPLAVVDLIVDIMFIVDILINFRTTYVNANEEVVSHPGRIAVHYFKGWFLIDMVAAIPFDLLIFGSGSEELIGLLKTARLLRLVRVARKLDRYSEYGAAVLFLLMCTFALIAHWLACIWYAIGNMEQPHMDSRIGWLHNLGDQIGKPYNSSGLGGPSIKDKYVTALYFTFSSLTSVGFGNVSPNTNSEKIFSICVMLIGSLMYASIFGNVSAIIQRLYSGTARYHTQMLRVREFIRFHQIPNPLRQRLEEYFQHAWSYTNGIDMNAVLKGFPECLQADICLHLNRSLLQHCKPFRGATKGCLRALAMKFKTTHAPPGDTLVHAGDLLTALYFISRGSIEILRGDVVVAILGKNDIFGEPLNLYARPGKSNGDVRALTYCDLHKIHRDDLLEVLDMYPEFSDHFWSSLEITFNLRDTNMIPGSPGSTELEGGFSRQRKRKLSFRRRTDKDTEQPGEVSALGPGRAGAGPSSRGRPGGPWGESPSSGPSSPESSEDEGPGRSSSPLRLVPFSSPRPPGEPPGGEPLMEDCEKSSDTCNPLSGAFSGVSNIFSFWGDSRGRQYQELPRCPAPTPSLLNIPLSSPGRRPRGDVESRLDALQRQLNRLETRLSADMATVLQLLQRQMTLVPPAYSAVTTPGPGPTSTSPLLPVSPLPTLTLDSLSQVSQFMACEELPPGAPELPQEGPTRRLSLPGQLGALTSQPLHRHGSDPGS", "experiment": "primary screen, population patch clamp on CHO cells stably expressing hERG", "units": {"hERG current change (%, negative = inhibition) at 1uM": "%"}, "values": [
      {"smiles": "c1ccc(-n2ncc3c(N4CCCC4)ncnc32)cc1", "hERG current change (%, negative = inhibition) at 1uM": 2.65},
      {"smiles": "Cc1nc2c3cnn(-c4ccc(C)c(C)c4)c3ncn2n1", "hERG current change (%, negative = inhibition) at 1uM": 14.2},
      {"smiles": "Cc1sc2nc(Cc3ccccc3)[nH]c(=O)c2c1-c1ccccc1", "hERG current change (%, negative = inhibition) at 1uM": 17.3},
      {"smiles": "COc1ccc(CCNC(=O)Nc2ccc([N+](=O)[O-])cc2)cc1OC", "hERG current change (%, negative = inhibition) at 1uM": -5.79},
      {"smiles": "COc1ccc2[nH]cc(CCNC(=O)Cc3ccc(Cl)cc3)c2c1", "hERG current change (%, negative = inhibition) at 1uM": 14.7},
      {"smiles": "Cc1ccc(N2C(=O)c3ccc(C(=O)N4CCN(c5ccccc5F)CC4)cc3C2=O)cc1", "hERG current change (%, negative = inhibition) at 1uM": 7.2},
      {"smiles": "CNC(=O)c1ccc(Nc2nnc(-c3ccc(C(N)=O)cc3)c3ccccc23)cc1", "hERG current change (%, negative = inhibition) at 1uM": 10},
      {"smiles": "COc1ccc(CN2CNc3c(c(=O)n(C)c(=O)n3C)C2)cc1", "hERG current change (%, negative = inhibition) at 1uM": 6.88},
      {"smiles": "CCn1c(CNc2ccc(Cl)cc2)nnc1SCc1ccc(C)cc1", "hERG current change (%, negative = inhibition) at 1uM": 9.6},
      {"smiles": "Cc1cccc(NC(=S)NNC(=O)c2ccc(O)cc2O)c1C", "hERG current change (%, negative = inhibition) at 1uM": 20.3},
      {"smiles": "COCCCNC(=O)CN1C(=O)COc2ccc(S(=O)(=O)N3CCOCC3)cc21", "hERG current change (%, negative = inhibition) at 1uM": 0.471},
      {"smiles": "COc1ccc(S(=O)(=O)N(C)C)cc1NC(=O)CSC(C)C(=O)Nc1cc(C)on1", "note": "(stereo not drawn)", "hERG current change (%, negative = inhibition) at 1uM": 2.09},
      {"smiles": "COC(=O)c1ccc(OCC(O)CN2C(=O)c3ccccc3S2(=O)=O)cc1", "note": "(stereo not drawn)", "hERG current change (%, negative = inhibition) at 1uM": 15.5},
      {"smiles": "COc1ccc(CCNC(=O)c2ccc3c(c2)SC2=NS(=O)(=O)CCN23)cc1", "hERG current change (%, negative = inhibition) at 1uM": -7.12},
      {"smiles": "O=C(CCn1c(=O)[nH]c2ccsc2c1=O)N1CCc2ccccc2C1", "hERG current change (%, negative = inhibition) at 1uM": 9.65},
      {"smiles": "COc1ccc(C(=O)OCC(=O)NCc2ccco2)cc1OC", "hERG current change (%, negative = inhibition) at 1uM": 14.9},
      {"smiles": "COc1ccc(CC(=O)Nc2ccc(F)c(Cl)c2)cc1S(=O)(=O)N1CCOCC1", "hERG current change (%, negative = inhibition) at 1uM": -2.62},
      {"smiles": "Cc1ccc(C(CC(=O)c2ccc(Cl)cc2)C(=O)O)cc1", "note": "(stereo not drawn)", "hERG current change (%, negative = inhibition) at 1uM": 2.03},
      {"smiles": "O=C(CCN1C(=O)c2ccc(Br)cc2C1=O)NC1CCCCC1", "hERG current change (%, negative = inhibition) at 1uM": 15.6},
      {"smiles": "CCOC(=O)c1nnn(-c2nonc2-n2cccc2)c1CN1CCC(C)CC1", "hERG current change (%, negative = inhibition) at 1uM": 12.3},
      {"smiles": "CC1=C(C(=O)Nc2cccc(F)c2)C(c2ccsc2)C2=C(CC(C)(C)CC2=O)N1", "note": "(stereo not drawn)", "hERG current change (%, negative = inhibition) at 1uM": 11.5},
      {"smiles": "Cc1[nH]n(C(N)=S)c(=O)c1N=Nc1cc(C(F)(F)F)ccc1Cl", "hERG current change (%, negative = inhibition) at 1uM": 14},
      {"smiles": "O=C(NCCN1CCN(c2ccccc2)CC1)C1CCCN(S(=O)(=O)c2cnc[nH]2)C1", "note": "(stereo not drawn)", "hERG current change (%, negative = inhibition) at 1uM": 13.6},
      {"smiles": "FC(F)(F)c1cccc(-n2nnnc2C2(N3CCOCC3)CCCCC2)c1", "hERG current change (%, negative = inhibition) at 1uM": 1.96}
    ]}
  ]
}
